# Source: PubChem BioAssay AID588591 (National Center for Advancing Translational Sciences (NCATS), 2011)
# Several values for one entry are separate records, joined by “and”; a condition that tells them apart may be missing. Identical values can stand only once. The whole screen tested about 390,000 compounds, of which about 4,700 (1.2%) were called active. This list was built around the results that the source calls inconclusive (neither active nor inactive); the mix of calls is not that of the screen. Calls come from the whole dose curve; as a rule, active = well fitted inhibition curve with a large enough effect; inconclusive = small, poorly fitted or top-dose-only effect, or another doubt; inactive = no such curve, though single readings can be large or run the other way. Potencies of inconclusive entries are doubtful fits and often do not repeat.
# Biological target: DNA polymerase eta (Homo sapiens) (UniProt Q9Y253)
# Chain of UniProt Q9Y253 (Q9Y253 whole entry, looked up): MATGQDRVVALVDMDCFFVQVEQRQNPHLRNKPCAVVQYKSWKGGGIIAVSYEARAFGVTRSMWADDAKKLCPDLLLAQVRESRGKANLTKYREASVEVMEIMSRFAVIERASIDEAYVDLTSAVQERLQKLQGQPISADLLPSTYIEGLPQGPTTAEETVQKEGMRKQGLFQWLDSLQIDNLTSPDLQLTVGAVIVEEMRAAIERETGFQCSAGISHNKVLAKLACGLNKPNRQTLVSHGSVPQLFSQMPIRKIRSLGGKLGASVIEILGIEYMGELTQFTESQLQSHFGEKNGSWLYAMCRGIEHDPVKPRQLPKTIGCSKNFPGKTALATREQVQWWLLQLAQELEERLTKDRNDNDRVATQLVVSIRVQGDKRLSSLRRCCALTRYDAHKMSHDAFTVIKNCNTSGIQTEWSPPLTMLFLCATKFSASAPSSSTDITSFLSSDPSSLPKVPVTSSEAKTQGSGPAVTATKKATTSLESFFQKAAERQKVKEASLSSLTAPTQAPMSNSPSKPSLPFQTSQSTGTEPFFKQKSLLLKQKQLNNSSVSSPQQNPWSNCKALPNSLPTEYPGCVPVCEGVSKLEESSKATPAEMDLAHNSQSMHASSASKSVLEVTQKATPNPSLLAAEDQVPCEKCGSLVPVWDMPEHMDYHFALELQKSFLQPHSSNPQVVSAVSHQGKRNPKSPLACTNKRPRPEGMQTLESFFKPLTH
# Assay: qHTS for Inhibitors of Polymerase Eta
# Details: recombinant Pol eta, fluorescent DNA replication assay; series mostly up to 114 µM; activity change, negative = inhibition: at the top concentration
# How it was run: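 Fluorescent replication assay: 50 nM final substrate added after a 15 min room-temperature compound preincubation with 10 nM enzyme. Signal taken at 0 min and again at 10 min.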
# % is set by controls: 0 for no effect and ±100 for the full control effect; potency is the fitted concentration of half-maximal effect; tags give direction and shape of the fitted curve.
Compound,Potency,"activity change, negative = inhibition"
CCOc1ccc(Br)cc1S(=O)(=O)Nc1cccc(S(=O)(=O)N(C)C)c1,"inconclusive: 100 µM [inhibitor, partial curve, poor fit]",
CCOc1ccccc1NC(=O)c1nn(-c2ccc(C)cc2)c(=O)n(C)c1=O,,inactive: -6.31%
N#C/C(=C\c1ccc(OCc2ccc(Br)cc2)cc1)C(=O)Nc1cccc(C(=O)O)c1,"inconclusive: 50.1 µM [inhibitor, partial curve, poor fit]",
Fc1ccc(-c2noc3ncnc(NCc4ccc(Cl)cc4)c23)cc1,,inactive: 0.985%
Cc1ccn2c(=O)nc(SCC(=O)NCc3ccccc3)nc2c1,active: 22.4 µM,
O=C(N/N=C/c1cccs1)c1ccccn1,,inactive: -0.873%
CCCCN(C(=O)C1CC(=O)N(c2ccc(C)cc2)C1)c1c(N)n(CCC)c(=O)[nH]c1=O (centres undefined),"inconclusive: 35.5 µM [inhibitor, single point]",
COc1cc(/C=C(\C#N)c2nc3ccccc3[nH]2)cc(OC)c1O,"inconclusive: 44.7 µM [inhibitor, partial curve]",
CC(C)CCNC(=O)c1onc(CSc2ccc(F)c(F)c2)c1C(=O)NCCC(C)C,"inconclusive: 79.4 µM [inhibitor, partial curve, poor fit]",
O=C(COC(=O)c1ccc(Br)o1)Nc1nc2c(F)c(F)c(F)cc2s1,active: 56.2 µM,
COc1cc(C2CC(=O)Oc3c2c(=O)n(C)c2ccccc32)ccc1O (centres undefined),active: 44.7 µM and active: 35.5 µM,
COc1cc2c(cc1NC(=O)CSc1nc3ccccc3[nH]1)oc1ccccc12,active: 50.1 µM,
Cc1ccc(/C=N/Nc2cccc(C(=O)O)c2)s1,"inconclusive: 14.1 µM [inhibitor, partial curve, poor fit]",
CCOC(=O)c1cccc(NC(=O)CCn2c(-c3ccc(F)cc3)cc(C(=O)OCC)c2C)c1,"inconclusive: 22.4 µM [inhibitor, partial curve, poor fit]",
C[C@H](CCC(=O)O)[C@H]1CC[C@H]2[C@@H]3CC[C@@H]4C[C@H](O)CC[C@]4(C)[C@H]3CC[C@]12C,,inactive: -8.38%
COc1ccc(CC(NC(C)=O)C(=O)N2CCN(C(=O)N(C(C)C)C(C)C)CC2)cc1 (centres undefined),,inactive: -16.3%
COc1cccc(CC(=O)NNC(=O)CN(C)S(=O)(=O)c2ccc(C)cc2)c1,"inconclusive: 89.1 µM [inhibitor, partial curve, poor fit]",
CN(C)CCNC(=O)c1cccc2nc3cccc(F)c3nc12,"inconclusive: 22.4 µM [inhibitor, partial curve, poor fit]",
Cc1csc(N2CCN(c3cc4nc(-c5ccncc5)[nH]c4cc3Cl)CC2)n1,,inactive: 8.3%
CCOC(=O)CSc1nc2c(c(=O)[nH]c(=O)n2C)n1CCc1ccccc1,,inactive: -21%
O=[N+]([O-])c1cccnc1SCc1ccccc1,,inactive: -17.7%
CC1=Nc2ccccc2/C1=C/c1sc(=S)n(-c2cccc(C(=O)O)c2)c1O,active: 35.5 µM,
CCOC(=O)C(=O)Cc1cccnn1,active: 2.82 µM,

Compound,Potency,"activity change, negative = inhibition"
O=C(O)c1ccc(Cl)c(NCc2cccnc2)c1,"inconclusive: 89.1 µM [inhibitor, single point]",
CN(c1ccc(F)cc1)S(=O)(=O)c1ccc2[nH]cc(C(=O)O)c(=O)c2c1,"inconclusive: 28.2 µM [inhibitor, partial curve, poor fit]",
O=C(N/N=C/c1ccc(Br)cc1)c1ccc(NC(=O)c2ccccc2)cc1,"inconclusive: 39.8 µM [inhibitor, single point]",
O=C(O)C(c1ccccc1)N1C(=O)/C(=C\c2ccc(O)c(O)c2)SC1=S (centres undefined),active: 3.16 µM,
O=[N+]([O-])c1ccc(-c2nc3ccc([N+](=O)[O-])cc3[nH]2)cc1,"inconclusive: 35.5 µM [inhibitor, partial curve, poor fit]",
COc1ccc(C(=O)CSc2ccc(-c3ccco3)nn2)cc1,"inconclusive: 22.4 µM [inhibitor, single point]",
CCN(CC)c1ccc(C(=C2C=CC(=[N+](CC)CC)C=C2)c2ccc(S(=O)(=O)O)cc2S(=O)(=O)[O-])cc1,active: 20 µM,
COc1ccc(S(=O)(=O)NCCc2csc(-c3ccc(F)cc3)n2)cc1F,,inactive: -22%
CCSC1=NC(C)(C)C=C(/C=C/c2ccc(Cl)cc2Cl)N1,,inactive: -20%
Cc1ccccc1N1C(S)=C(C#N)C(=O)NC1c1cccs1 (centres undefined),"inconclusive: 3.98 µM [inhibitor, partial curve, poor fit]",
C/C(N)=C(/C#N)C(=O)CSc1nnc(Cc2ccccc2F)n1N,"inconclusive: 31.6 µM [inhibitor, partial curve, poor fit]",
Cc1ccc(S(=O)(=O)NN2C(=O)/C(=C/c3ccc(F)cc3)SC2=S)cc1,"inconclusive: 89.1 µM [inhibitor, partial curve]",
CC(=O)c1ccc(S(=O)(=O)NCc2nnnn2-c2ccccc2)cc1,"inconclusive: 28.2 µM [inhibitor, full curve]",
COc1ccc(Br)cc1CN1C(=O)c2ccccc2C1C(=O)NC1CCCCCC1 (centres undefined),,inactive: -8.57%
CC(=O)c1ccccc1OCc1ccc(C(=O)c2ccccc2)cc1,,inactive: -17.2%
COc1ccccc1N1CC(C(=O)Nc2nnc(SCc3ccccn3)s2)CC1=O (centres undefined),"inconclusive: 39.8 µM [inhibitor, partial curve, poor fit]",
O=C(Nc1ccc2oc(-c3ccncc3)nc2c1)c1cccs1,"inconclusive: 31.6 µM [inhibitor, single point]",
N#Cc1ccccc1CSc1nc2ccc(NC(=O)c3ccccc3C(=O)O)cc2s1,"inconclusive: 79.4 µM [inhibitor, partial curve, poor fit]",
Cc1cnc(C(=O)OCC(=O)Nc2sc3c(c2C(N)=O)CCCC3)cn1,"inconclusive: 39.8 µM [inhibitor, partial curve, poor fit]",
CCSc1nc(-c2ccco2)ccc1C#N,"inconclusive: 89.1 µM [inhibitor, single point]",
COc1ccc(-n2nc3c(c2NC(=O)COc2cccc(OC)c2)CS(=O)(=O)C3)cc1,"inconclusive: 15.8 µM [inhibitor, full curve, poor fit]",
C/C(=N\Nc1ccc(Cl)c(C(=O)O)c1)c1ccc[nH]1,active: 14.1 µM,
O=C(Nc1ccc(OCC(=O)N2CCOCC2)cc1)Nc1cccc(Cl)c1,"inconclusive: 44.7 µM [inhibitor, partial curve, poor fit]",

Compound,Potency,"activity change, negative = inhibition"
Oc1ccccc1-c1nc2c3ccccc3c3ccccc3c2[nH]1,"inconclusive: 31.6 µM [inhibitor, full curve]",
Cc1ccccc1-n1c(=O)c2ccccc2n2cnnc12,,inactive: -10.5%
COc1ccc(NC(=O)N/C=C/c2ccco2)cc1,active: 44.7 µM,
COc1ccc(-c2nnc(Nc3nc4c(OC)cccc4s3)o2)c(OC)c1,"inconclusive: 50.1 µM [inhibitor, partial curve]",
COc1ccc(OC)c(C2CC(=O)N3CN(c4ccccc4)CSC3=C2C#N)c1 (centres undefined),,inactive: -22.8%
O=C(NCc1ccc(F)cc1)C1CCN(c2cnccn2)CC1,,inactive: 1.21%
CC(C)NC(=O)C1=CC(c2ccc3c(c2)OCO3)=NS(=O)(=O)N1C,"inconclusive: 89.1 µM [inhibitor, partial curve, poor fit]",
CCCCn1c(N)c(N(CCOC)C(=O)c2ccc(C)o2)c(=O)[nH]c1=O,"inconclusive: 39.8 µM [inhibitor, partial curve, poor fit]",
COc1ccc(-c2cnn3c4c(c(C)nc23)CCN4C2CCCC2)cc1OC,"inconclusive: 14.1 µM [inhibitor, partial curve]",
Cc1ccc(S(=O)(=O)N2C[C@H]3n4c(=O)ccc(=O)n4C[C@H](OC(=O)NCc4ccccc4F)[C@@]3(O)C2)cc1,"inconclusive: 39.8 µM [inhibitor, partial curve, poor fit]",
O=c1cc(O)nc(SC23CC4CC(CC(C4)C2)C3)[nH]1,"inconclusive: 89.1 µM [inhibitor, partial curve, poor fit]",
CCOC(=O)c1cc(CC)sc1NC(=O)CN1CCN(C(=O)c2ccco2)CC1,"inconclusive: 22.4 µM [inhibitor, partial curve, poor fit]",
Cc1nn(-c2ccccc2)c2nc(-c3ccco3)cc(C(=O)O)c12,active: 7.94 µM,
Cc1cc(Nc2nn(C)c(N)c2C#N)ccc1F,,inactive: -2.81%
CCOC(=O)C1CCN(C(=O)CCc2nc3sc4c(c3c(=O)[nH]2)CCCC4)CC1,active: 22.4 µM,
CCOc1ccccc1N(CC)C(=O)Cn1ncc2c1-c1ccccc1OC2,,inactive: -26.9%
O=C1CCCC/C1=C/Nc1ccc(C(=O)O)cc1,"inconclusive: 89.1 µM [inhibitor, single point]",
CCOC(=O)/C(C#N)=C/c1ccc(N2CCN(Cc3ccccc3)CC2)cc1,"inconclusive: 50.1 µM [inhibitor, partial curve]",
CCCCCCc1cc2cc(-c3nnc(-c4ccccc4)o3)c(=O)oc2cc1O,active: 39.8 µM,
CN1CCc2c(sc3nc(SCC(N)=O)n(-c4ccccc4)c(=O)c23)C1,"inconclusive: 28.2 µM [inhibitor, single point]",
COc1ccc(NC(=O)COc2ccc(-c3ccccc3)cc2)cc1,"inconclusive: 89.1 µM [inhibitor, single point]",
COc1cccc(/C=N/Nc2nn3cnnc3c3ccccc23)c1,"inconclusive: 39.8 µM [inhibitor, single point]",
Cc1ccc2nc(N/N=C\c3ccc([N+](=O)[O-])o3)nc(-c3ccccc3)c2c1,"inconclusive: 15.8 µM [inhibitor, partial curve]",
